The structures appear in SMILES notation. Out of some 310,000 compounds screened, about 2,200 (0.71%) showed an effect of 50% or more. The effect is printed as a negative number. Some of the results follow.

Data on 57 molecules can be found in publication PMC4336329 (PLoS ONE, 2015).

Sequence of human ether-à-go-go-related gene (hERG) potassium channel (Q12809 whole entry, looked up): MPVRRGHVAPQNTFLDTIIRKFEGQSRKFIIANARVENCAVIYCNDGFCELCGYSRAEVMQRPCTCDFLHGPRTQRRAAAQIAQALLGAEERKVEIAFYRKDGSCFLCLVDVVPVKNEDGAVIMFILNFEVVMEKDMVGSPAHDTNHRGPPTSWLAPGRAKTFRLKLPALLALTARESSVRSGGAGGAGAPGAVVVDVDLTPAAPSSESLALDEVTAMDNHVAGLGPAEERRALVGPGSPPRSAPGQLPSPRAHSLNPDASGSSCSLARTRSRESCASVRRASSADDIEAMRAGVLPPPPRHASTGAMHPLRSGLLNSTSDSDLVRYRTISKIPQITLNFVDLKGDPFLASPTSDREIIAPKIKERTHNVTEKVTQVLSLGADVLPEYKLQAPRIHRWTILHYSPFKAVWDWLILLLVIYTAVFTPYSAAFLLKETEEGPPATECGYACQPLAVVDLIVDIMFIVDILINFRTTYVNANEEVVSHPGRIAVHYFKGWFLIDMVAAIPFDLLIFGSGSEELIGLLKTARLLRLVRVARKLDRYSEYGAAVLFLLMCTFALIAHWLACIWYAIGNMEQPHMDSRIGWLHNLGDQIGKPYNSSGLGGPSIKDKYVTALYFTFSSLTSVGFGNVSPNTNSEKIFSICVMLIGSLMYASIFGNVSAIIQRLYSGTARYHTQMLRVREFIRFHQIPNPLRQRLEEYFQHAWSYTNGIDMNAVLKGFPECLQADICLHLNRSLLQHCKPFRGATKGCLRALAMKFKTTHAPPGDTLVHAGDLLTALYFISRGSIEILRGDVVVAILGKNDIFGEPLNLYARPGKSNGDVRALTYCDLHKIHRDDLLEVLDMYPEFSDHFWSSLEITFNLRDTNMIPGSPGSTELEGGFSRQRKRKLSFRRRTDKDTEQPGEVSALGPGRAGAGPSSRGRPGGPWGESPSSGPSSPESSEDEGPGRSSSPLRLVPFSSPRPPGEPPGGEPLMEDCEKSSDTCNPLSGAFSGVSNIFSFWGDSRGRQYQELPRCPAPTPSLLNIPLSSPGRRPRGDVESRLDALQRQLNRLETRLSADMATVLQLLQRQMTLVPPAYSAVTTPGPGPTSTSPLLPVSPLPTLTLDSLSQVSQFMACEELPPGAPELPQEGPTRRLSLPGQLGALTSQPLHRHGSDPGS

This experiment has as its target human ether-à-go-go-related gene (hERG) potassium channel (human, UniProt Q12809). Briefly: primary screen, population patch clamp on CHO cells stably expressing hERG.
Take `Cc1ccc(C(=O)NCC(=O)NCCc2ccc(S(N)(=O)=O)cc2)s1`: the “hERG current change (%, negative = inhibition) at 1uM” value came to 6.16%.
The same measure for `CC(=O)NNC(=O)C(O)(c1ccccc1)c1ccccc1`: 6.17%; for `CC(C)(C)C(=O)Nc1ccccc1C(=O)NCCC(=O)Nc1ccccc1`: 5.94%.
For `CC(=O)NC(c1ccco1)c1cc(Cl)c2ccccc2c1O` (stereo not drawn) the value was 3.56%; for `COC(=O)c1cccc(C(=O)N2CCC(CO)(Cc3ccccc3Cl)CC2)c1`, 6.56%.
`CC(=O)C1=NOC(CNc2ncc(C(F)(F)F)cc2Cl)C1` (stereo not drawn): the “hERG current change (%, negative = inhibition) at 1uM” value came out at 16.9%.
For `COCCC(=O)N1CCCC(C(=O)c2ccc3c4c(cccc24)CC3)C1` (stereo not drawn) the value was 1.52%.
For the molecule `Cc1nn2c(NCCCN(C)C)c3c(nc2c1-c1ccccc1)CCC3`, the “hERG current change (%, negative = inhibition) at 1uM” value is given as -13.4%.
Take `NNc1nc2sc3c(c2c(=O)n1-c1ccccc1)CCCC3`: the “hERG current change (%, negative = inhibition) at 1uM” value is reported as 10.4%.
For `Cn1c(SCc2cc([N+](=O)[O-])cc3c2OCOC3)nnc1-c1ccccn1` the value was 7.91%.
For `COc1ccc(C2CC(=O)C3=C(C2)Nc2ncnn2C3c2ccccc2)cc1` (stereo not drawn) the value was -5.14%.
The same measure for `CC(=O)c1c(C)[nH]c(C(=O)OCC(=O)NCCc2ccc(F)cc2)c1C`: -1.47%.
For the molecule `O=S(=O)(Nc1ccccc1N1CCCCC1)c1ccccc1`, the “hERG current change (%, negative = inhibition) at 1uM” value is recorded as -0.354%.
Turning to `Cc1ccc2c(COC(=O)c3ccc(C)c(C)c3)cc(=O)oc2c1`, the “hERG current change (%, negative = inhibition) at 1uM” value amounted to 18.9%.
For the molecule `CC1=C(C(=O)Nc2ccc(C)cn2)C(c2cnn(C)c2)C2=C(CCCC2=O)N1` (stereo not drawn), the “hERG current change (%, negative = inhibition) at 1uM” value was determined as 11.5%.
The same measure for `O=C1C2CCC(C(O)C2)N1Cc1ccccc1` (stereo not drawn): 0.542%; for `COCCNC(=O)C(=O)Nc1cc2c3c(c1)CCC(=O)N3CCC2`: 53.8%.
For `Cc1ccc(S(=O)(=O)c2c(N)n(NC(=O)c3ccco3)c3nc4ccccc4nc23)cc1` the value was 5.12%; for `CC1CCN(C(=O)c2ccc(CSc3nc4ccncc4n3Cc3ccc(F)cc3)cc2)CC1`, 3.78%; for `CC(=O)N1CCc2cc(Br)cc(S(=O)(=O)NCCCN3CCC(C)CC3)c21`, 4.92%.
For `Fc1ccc(Oc2ncccn2)c(F)c1` the value was 15.1%.
`Cc1ccc2c(NC(=S)NC(=O)c3ccccc3)cccc2n1`: the “hERG current change (%, negative = inhibition) at 1uM” value turned out to be 9.56%.
Regarding `CCCCCCCCCCCC(=O)O`, the “hERG current change (%, negative = inhibition) at 1uM” value was determined as 17.5%.
Take `O=C(CCc1nnc2ccc(NCc3ccc(F)cc3)nn12)N1CCC2(CC1)OCCO2`: the “hERG current change (%, negative = inhibition) at 1uM” value was 18.2%.
`O=Cc1ccc(N2CCCC2)c(F)c1`: the “hERG current change (%, negative = inhibition) at 1uM” value is recorded as 3.37%.
For `COc1cccc(NC(=O)c2nn(-c3ccc(OC)cc3OC)c(=O)c3ccccc23)c1`, the “hERG current change (%, negative = inhibition) at 1uM” value was 11.7%.
Turning to `CCCCCCn1c(C)nc2c(c1=O)c1nc3ccccc3nc1n2/N=C/c1ccco1`, the “hERG current change (%, negative = inhibition) at 1uM” value is given as -2.42%.
As to `O=C(CN1CCN(c2cccc(Cl)c2)CC1)c1ccc(O)cc1O`, the “hERG current change (%, negative = inhibition) at 1uM” value turned out to be 9.86%.
For `OCCN1CCN(C(=S)NC2CCCC2)CC1` the value was 0.483%; for `CCOc1ccc(S(=O)(=O)N2CCC(C(=O)N3CCN(C)CC3)CC2)cc1Cl`, 12.5%.
`COc1ccccc1C1C2CCCCC2(O)CCN1CC(=O)Nc1ccccc1` (stereo not drawn): the “hERG current change (%, negative = inhibition) at 1uM” value is on record as -2.02%.
In the case of `COC(=O)CN(c1ccc(F)cc1)S(=O)(=O)c1ccc2c(c1)OCCO2`, the “hERG current change (%, negative = inhibition) at 1uM” value was found to be 6.98%.
The same measure for `Cc1ccc(S(=O)(=O)CCC(=O)c2ccc(F)cc2)cc1`: 0.329%; for `CC1Cc2ccccc2N1CC(=O)NC(c1ccccc1)c1ccccc1.O=C(O)C(=O)O` (stereo not drawn): 12.3%.
In the case of `CSc1cccc(NC(=O)CCC(=O)O)c1`, the “hERG current change (%, negative = inhibition) at 1uM” value stood at 3.71%.
The same measure for `Cc1ccc(CNC(=O)CN(c2ccc(Cl)cc2)S(C)(=O)=O)cc1`: 13.9%; for `CC1Cc2cc(/C(O)=C3/C(=O)C(=O)N(CCCN4CCOCC4)C3c3ccc(C(C)C)cc3)ccc2O1` (stereo not drawn): 12.7%; for `O=C(Nc1cccc(-c2nc3ncccc3o2)c1)c1sc2ccccc2c1Cl`: 18.7%.
With `Cc1ccc(SCc2[nH]nc3c2C2(C(=O)Nc4ccc([N+](=O)[O-])cc42)C(C#N)=C(N)O3)cc1` (stereo not drawn), the “hERG current change (%, negative = inhibition) at 1uM” value was found to be 4.12%.
For `CC(C)c1ccc(NC(=O)COC(=O)/C=C/c2cccc(Br)c2)cc1` the value was 0.318%.
`Cc1csc(CNC(=O)C2CCC(=O)N(CCc3cccc(F)c3)C2)n1` (stereo not drawn): the “hERG current change (%, negative = inhibition) at 1uM” value came to 9.09%.
For `COc1ccc(-c2cnn3c4c(c(C)nc23)CCN4C2CCCC2)cc1OC` the value was 10.8%; for `O=S(=O)(NCC1CCCO1)c1ccc(Oc2ccccc2)cc1` (stereo not drawn), 8.02%.
The same measure for `C=CCSc1nccc(=O)[nH]1`: 13.2%; for `CSCCC(NC(=O)c1ccc(Cl)cc1)C(=O)OCC(=O)Nc1cc(Cl)ccc1C#N` (stereo not drawn): 12.9%; for `C=CCN(CC=C)C(=O)c1ccc(OC2CCN(Cc3ccccn3)CC2)cc1`: 6.2%.
As for `COc1ccc(NC(=O)c2cc(CC(C)C)on2)cc1OC`, the “hERG current change (%, negative = inhibition) at 1uM” value was found to be 6.43%.
Turning to `Cc1cccc(OP(N)(=O)Oc2cccc(C)c2)c1`, the “hERG current change (%, negative = inhibition) at 1uM” value came to 10.6%.
With `Cc1ccc(C)c(OC(=O)c2cncc(Br)c2)c1`, the “hERG current change (%, negative = inhibition) at 1uM” value is on record as 8.32%.
The same measure for `O=C(c1ccco1)N1CCN(C(=O)c2ccc(COc3ccc(F)cc3)o2)CC1`: -22.4%; for `C#Cc1ccc(CN2CCC(Oc3ccc(C(=O)NCc4ccccn4)cc3)CC2)cc1`: 6.41%.
Take `Cc1cc(C(=O)Nc2cccc3ccccc23)n(-c2ccccc2)n1`: the “hERG current change (%, negative = inhibition) at 1uM” value came to 9.69%.
For `NCCCC[C@H]1CNC(=S)N1CC1(c2ccccc2)CC1` the value was 14.4%.
Turning to `CCOc1ccc(/C=N/OCC(=O)Nc2cc(C)on2)cc1`, the “hERG current change (%, negative = inhibition) at 1uM” value was 13.9%.
The same measure for `Cc1cccc(NC(=O)c2nc[nH]c2C(=O)N[C@@H](Cc2ccccc2)C(=O)OCc2ccccc2)c1`: 14.5%; for `CN(C(=O)c1cc([N+](=O)[O-])ccc1N1CCCC1)C1CCCCC1`: 9.64%; for `O=S(=O)(c1ccc(Cl)cc1)N1CCCC1c1nc(-c2cccc(Cl)c2)no1` (stereo not drawn): 12.7%.
